Assay results: PubChem BioAssay (Tox21)
Inconclusive results, whose numbers are uncertain, are shown with a selection of clear calls. No potency is given beside an inconclusive call; the fits are too rough. Active and inactive are the calls of the source. Calls follow the shape of the dose curve; as a rule, active = well fitted curve in the direction sought with a large enough effect in the repeat runs; inconclusive = weak or mixed curves; inactive = no such curve, though single readings can be large; an effect the other way counts as inactive or inconclusive. *1 amine or outer side, *2 acyl side, *3 side chain or, on linkers, in order; H or OH if unused. Where a SMILES comes first, the peptide text is derived from it. Bridges are numbered along the chain shown (N, C = ends). Roman numbers before positions name the chains, in order. [ ]: non-standard residue; d: D form. Actinocin(9to1) = Cc1c2oc3c(C)ccc(C(=O)[*:1])c3nc-2c(C(=O)[*:2])c(N)c1=O; NMeV = CN[C@H](C(=O)O)C(C)C; Sar = CNCC(=O)O

assay: A CellTox Green Cytotoxicity Assay to monitor cytotoxicity in HEK293 cells - 16 hour (AID 1224888); details: CellTox Green fluorescence; series mostly up to 76.8 µM; also: nearly all actives have a fitted effect of over 35% in size
Outline: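 HEK293 cells premixed with CellTox Green dye were seeded at 600 cells/well and left 5 h at 37 C/5% CO2 before pin transfer of 23 nL compound in DMSO. Fluorescence from dye bound to dead-cell DNA was read during 40 h treatment.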
Potency is read from the fitted curve at half-maximal effect; tags tell the direction and shape of the fitted curve.

Structure (SMILES) | Potency
CCOC(=O)c1ccc(I)cc1 | inconclusive [activator, partial curve]
O=C(Nc1cccc(Cl)c1)OCC#CCCl | inactive
COC(=O)Nc1nc2ccc(S(=O)c3ccccc3)cc2[nH]1 (stereo unspecified) | inactive
O=C=Nc1cccc(C(F)(F)F)c1 | inconclusive [activator, single point]
C[n+]1c2cc(N)ccc2cc2ccc(N)cc21 (tested in a mixture with another compound) | active: 23.9 µM
O=C(Nc1ccc(S(=O)(=O)N2CCOCC2)cc1)c1cc(Cl)ccc1NS(=O)(=O)c1ccc(Cl)s1 | active: 23.9 µM
CCC(=O)O[C@H]1[C@H](O[C@@H]2[C@@H](C)[C@H](O[C@H]3C[C@@](C)(OC)[C@@H](O)[C@H](C)O3)[C@@H](C)C(=O)O[C@H](CC)[C@@](C)(O)[C@H](O)[C@@H](C)C(=O)[C@H](C)C[C@@]2(C)O)O[C@H](C)C[C@@H]1N(C)C | inconclusive [activator, partial curve, poor fit]
Cc1ncc(CO)c(CO)c1O | inactive
O=C1OC(c2ccc(O)cc2)(c2ccc(O)cc2)c2ccccc21 | inconclusive [activator, single point]
c1ccc(CCCc2ccncc2)cc1 | inconclusive [activator, partial curve, poor fit]
C1CN(SSN2CCOCC2)CCO1 | inconclusive [activator, partial curve]
CCOC(=O)CC | inactive

assay: qHTS RealTime-Glo MT Cell Viability Assay in HepG2 cells - 0 hour (AID 1224889); details: RealTime-Glo luminescence; series mostly up to 76.8 µM; also: nearly all actives have a fitted effect of over 50% in size
Outline: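 Cell number in HepG2 cultures estimated from NanoLuc luminescence generated by metabolic reduction of a prosubstrate by living cells. The homogeneous, nonlytic format allowed repeated reads at 0, 8, 16, 24, 32 and 40 h of compound exposure.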

Structure (SMILES) | Potency
Cc1c2oc3c(C)ccc(C(=O)N[C@@H]4C(=O)N[C@H](C(C)C)C(=O)N5CCC[C@H]5C(=O)N(C)CC(=O)N(C)[C@@H](C(C)C)C(=O)O[C@@H]4C)c3nc-2c(C(=O)N[C@@H]2C(=O)N[C@H](C(C)C)C(=O)N3CCC[C@H]3C(=O)N(C)CC(=O)N(C)[C@@H](C(C)C)C(=O)O[C@@H]2C)c(N)c1=O (I: T[dV]P[Sar][NMeV] / II: T[dV]P[Sar][NMeV]; ester I:1-I:C, II:1-II:C; linker I:N-II:N via Actinocin(9to1)) | inconclusive [cytotoxic, partial curve, poor fit]
CN1CCCN(C(c2ccccc2)c2ccc(Cl)cc2)CC1 (stereo unspecified) | inconclusive [rising, partial curve, poor fit]
O=C(Nc1ccc(S(=O)(=O)N2CCOCC2)cc1)c1cc(Cl)ccc1NS(=O)(=O)c1ccc(Cl)s1 | active: 9.52 µM
N=C1N=C(N)c2ccccc21 | inactive
Nc1ccc(O)cc1 | inconclusive [cytotoxic, partial curve]
O=C1OC(c2ccc(O)cc2)(c2ccc(O)cc2)c2ccccc21 | inconclusive [cytotoxic, partial curve, poor fit]
O=[N+]([O-])c1cc(C2CCCCC2)c(O)c([N+](=O)[O-])c1 | active: 38.8 µM
COc1ccccc1N1CCN(CC(O)COc2cccc3ccccc23)CC1 (stereo unspecified) | inconclusive [cytotoxic, full curve]
C/C=C(/C(=C/C)c1ccc(O)cc1)c1ccc(O)cc1 | inconclusive [cytotoxic, partial curve]
